This passage reports ALDHbr results from the supplement of paper PMC11880418.

Structures are written as SMILES. Structures can show the parent of a compound that is named as a salt. This is one part of the list. The data scatter; read single values as rough.
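Further: High-content imaging of ALDEFLUOR-stained cells with Hoechst-labelled nuclei in 384-well plates, triplicate wells, scored as Z-score against 0.1% DMSO vehicle, negative meaning fewer ALDHbr cells.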

The first assay deals with PANC1. The assay is described as follows: ALDHbr (CSC) cell proportion score relative to DMSO vehicle (ratio to DMSO); breast (SUM159) / gastric (MKN45) / pancreatic (PANC1) / colon cancer lines; ALDHbr cells have high ALDH activity and are rich in cancer stem cells (CSC); higher = more CSC (ALDHbr) cells remaining. Particulars: 10 µM; 72 h.
`CC(=O)Nc1ccc(OCC(O)CNC(C)C)cc1` (configuration not stated) [Practolol]: the ALDHbr turned out to be 0.847. `CSc1ccc2c(c1)N(CCC1CCCCN1C)c1ccccc1S2` (configuration not stated) [Thioridazine hydrochloride]: the ALDHbr was determined as 0.846.

As for `Cn1c(=O)c2nc[nH]c2n(C)c1=O` [Theophylline monohydrate], the ALDHbr amounted to 0.956. On the same count and under the same terms, for `Nc1nc(O)c2ncn(CCC(CO)CO)c2n1` [Penciclovir] the value was 1. On to `Nc1ccc(O)c(C(=O)O)c1` [Mesalamine], for which the ALDHbr was found to be 0.941. In the case of `Cc1scc2c1N(C(=O)CN1CCN(C)CC1)c1ccccc1NC2=O` [Telenzepine dihydrochloride], the ALDHbr was determined as 0.896. For the compound `Clc1ccc(Cn2c(CN3CCCC3)nc3ccccc32)cc1` [Clemizole hydrochloride], the ALDHbr turned out to be 0.756.

On to `O=C(O)c1cc(-c2ccc(F)cc2F)ccc1O` [Diflunisal], for which the ALDHbr was 0.92. Still for that read-out and setting: to `COc1c(N2C[C@@H]3CCCN[C@@H]3C2)c(F)cc2c(=O)c(C(=O)O)cn(C3CC3)c12` [Moxifloxacin] belongs 0.984. Take `Clc1ccc(COC(Cn2ccnc2)c2ccc(Cl)cc2Cl)cc1` (configuration not stated) [Econazole nitrate]: the ALDHbr came out at 0.995.

As for `c1cnc(N2CCN(Cc3ccc4c(c3)OCO4)CC2)nc1` [Piribedil hydrochloride], the ALDHbr was 1.02. On the same count and under the same terms, to `CC(=O)O[C@]1(C(C)=O)CC[C@H]2[C@@H]3C=C(Cl)C4=CC(=O)CC[C@]4(C)[C@H]3CC[C@@]21C` [Chlormadinone acetate] belongs 0.691. The same measure, in the same setting: to `Cc1cc(C(=O)NNCc2ccccc2)no1` [Isocarboxazid] belongs 0.992; to `COc1ccc(CC(C)NCC(O)c2ccc(O)c(NC=O)c2)cc1` (configuration not stated) [Formoterol fumarate], 0.819. For the compound `CN1CCN(CCCN2c3ccccc3Sc3ccc(S(=O)(=O)N(C)C)cc32)CC1` [Thioproperazine dimesylate], the ALDHbr was 0.686. Same read-out and setting: for `CC(C)(C)C(=O)OCOC(=O)[C@@H]1N2C(=O)[C@@H](/N=C/N3CCCCCC3)[C@H]2SC1(C)C` [Pivmecillinam hydrochloride] the value was 1.03. For the compound `Cc1onc(-c2ccccc2)c1-c1ccc(S(N)(=O)=O)cc1` [Valdecoxib], the ALDHbr is 0.859. As to `COc1c(O[C@@H]2O[C@H](CO)[C@@H](O)[C@H](O)[C@H]2O)cc2c(c1OC)-c1ccc(SC)c(=O)cc1[C@@H](NC(C)=O)CC2` [Thiocolchicoside], the ALDHbr was found to be 1.09. In the case of `COc1ccccc1OCC(O)CO` (configuration not stated) [Guaifenesin], the ALDHbr turned out to be 0.921. With `Cc1cc(O)c(C(=O)N[C@@H](C(=O)N[C@@H]2C(=O)N3C(C(=O)O)=C(CSc4nnnn4C)CS[C@H]23)c2ccc(O)cc2)cn1` [Cefpiramide], the ALDHbr worked out at 0.864. Turning to `CC1(C)OC(=O)NC1=O` [Dimethadione], the ALDHbr was found to be 0.937.

Turning to `CCOC1O[C@H]([C@@H](COCc2ccccc2)OCc2ccccc2)[C@H](OCc2ccccc2)[C@H]1O` (some centres not stated) [Tribenoside], the ALDHbr stood at 0.906. Consider `CS(=O)(=O)c1ccc([C@@H](O)[C@@H](CO)NC(=O)C(Cl)Cl)cc1` [Thiamphenicol], for which the ALDHbr came to 0.599. Turning to `COc1cc(C(=O)NS(=O)(=O)c2ccccc2C)ccc1Cc1cn(C)c2ccc(NC(=O)OC3CCCC3)cc12` [Zafirlukast], the ALDHbr was determined as 0.991.

As to `C[C@H]1[C@H](NC(=O)/C(=N\OC(C)(C)C(=O)O)c2csc(N)n2)C(=O)N1S(=O)(=O)O` [Aztreonam], the ALDHbr amounted to 0.844. With `COC(=O)C1=C(C)NC(C)=C(C(=O)OC)C1c1ccccc1[N+](=O)[O-]` [Nifedipine], the ALDHbr amounted to 1.07. In the case of `CC(=O)Nc1ccc(O)cc1` [Acetaminophen], the ALDHbr amounted to 0.884.

A further assay concerns SUM159. The description is as above. Conditions: 10 µM; 72 h.
Turning to `CN1C(=O)CC(c2ccccc2)C1=O` (configuration not stated) [Phensuximide], the ALDHbr is 1.11. Take `CCOC(=O)[N-]c1c[n+](N2CCOCC2)no1` [Molsidomine]: the ALDHbr was 1.02. Take `CCN[C@H]1CN(CCCOC)S(=O)(=O)c2sc(S(N)(=O)=O)cc21` [Brinzolamide]: the ALDHbr is 1.19.

As to `CCCCCCNC(=O)n1cc(F)c(=O)[nH]c1=O` [Carmofur], the ALDHbr worked out at 0.454. Consider `CCOC(=O)O[C@]1(C(=O)COC(=O)CC)CC[C@H]2[C@@H]3CCC4=CC(=O)C=C[C@]4(C)[C@H]3[C@@H](O)C[C@@]21C` [Prednicarbate], for which the ALDHbr worked out at 0.829. On the same count and under the same terms, to `Cc1cccn2c(=O)c(-c3nnn[nH]3)cnc12` [Pemirolast potassium] belongs 1.18; to `CCn1cc(C(=O)O)c(=O)c2cc(F)c(N3CCN(C)CC3)cc21` [Pefloxacine], 1.2.

Regarding `C[C@H](CCC(=O)O)[C@H]1CC[C@H]2[C@@H]3[C@H](O)C[C@@H]4C[C@H](O)CC[C@]4(C)[C@H]3CC[C@]12C` [Chenodiol], the ALDHbr is 1.03.

As for `CCOC(=O)C(C)(C)Oc1ccc(Cl)cc1` [Clofibrate], the ALDHbr came out at 0.98. With `CC(CN1c2ccccc2Sc2ccccc21)N(C)C` (configuration not stated) [Promethazine hydrochloride], the ALDHbr came out at 0.771. In the case of `CCOC(=O)[C@H](CCc1ccccc1)N[C@@H](C)C(=O)N1CCC[C@H]1C(=O)O` [Enalapril maleate], the ALDHbr turned out to be 1.51. Still for that read-out and setting: for `Cc1ncc([N+](=O)[O-])n1CC(C)O` (configuration not stated) [Secnidazole] the value was 1.03; for `CCCCC(=O)N(Cc1ccc(-c2ccccc2-c2nnn[nH]2)cc1)[C@H](C(=O)O)C(C)C` [Valsartan], 1.09; for `CC(=O)Nc1ccc(OCC(O)CNC(C)C)cc1` (configuration not stated) [Practolol], 1.3. Consider `CSc1ccc2c(c1)N(CCC1CCCCN1C)c1ccccc1S2` (configuration not stated) [Thioridazine hydrochloride], for which the ALDHbr was found to be 1.1. Consider `Cn1c(=O)c2nc[nH]c2n(C)c1=O` [Theophylline monohydrate], for which the ALDHbr was 1.34. Regarding `Nc1nc(O)c2ncn(CCC(CO)CO)c2n1` [Penciclovir], the ALDHbr is 1.36. Regarding `Nc1ccc(O)c(C(=O)O)c1` [Mesalamine], the ALDHbr worked out at 0.805. Take `Cc1scc2c1N(C(=O)CN1CCN(C)CC1)c1ccccc1NC2=O` [Telenzepine dihydrochloride]: the ALDHbr came to 0.844. Regarding `Clc1ccc(Cn2c(CN3CCCC3)nc3ccccc32)cc1` [Clemizole hydrochloride], the ALDHbr is 0.868.

As to `O=C(O)c1cc(-c2ccc(F)cc2F)ccc1O` [Diflunisal], the ALDHbr came to 0.956. Take `COc1c(N2C[C@@H]3CCCN[C@@H]3C2)c(F)cc2c(=O)c(C(=O)O)cn(C3CC3)c12` [Moxifloxacin]: the ALDHbr was found to be 0.912.

On to `Clc1ccc(COC(Cn2ccnc2)c2ccc(Cl)cc2Cl)cc1` (configuration not stated) [Econazole nitrate], for which the ALDHbr was 0.968.

As for `c1cnc(N2CCN(Cc3ccc4c(c3)OCO4)CC2)nc1` [Piribedil hydrochloride], the ALDHbr came to 0.965.

In the case of `CC(=O)O[C@]1(C(C)=O)CC[C@H]2[C@@H]3C=C(Cl)C4=CC(=O)CC[C@]4(C)[C@H]3CC[C@@]21C` [Chlormadinone acetate], the ALDHbr was determined as 0.519.

Regarding `Cc1cc(C(=O)NNCc2ccccc2)no1` [Isocarboxazid], the ALDHbr amounted to 1.31. Same read-out and setting: to `COc1ccc(CC(C)NCC(O)c2ccc(O)c(NC=O)c2)cc1` (configuration not stated) [Formoterol fumarate] belongs 1.65. Take `CN1CCN(CCCN2c3ccccc3Sc3ccc(S(=O)(=O)N(C)C)cc32)CC1` [Thioproperazine dimesylate]: the ALDHbr came to 0.359.

`CC(C)(C)C(=O)OCOC(=O)[C@@H]1N2C(=O)[C@@H](/N=C/N3CCCCCC3)[C@H]2SC1(C)C` [Pivmecillinam hydrochloride]: the ALDHbr was found to be 0.704. On the same count and under the same terms, for `Cc1onc(-c2ccccc2)c1-c1ccc(S(N)(=O)=O)cc1` [Valdecoxib] the value was 1.34; for `COc1c(O[C@@H]2O[C@H](CO)[C@@H](O)[C@H](O)[C@H]2O)cc2c(c1OC)-c1ccc(SC)c(=O)cc1[C@@H](NC(C)=O)CC2` [Thiocolchicoside], 0.983; for `COc1ccccc1OCC(O)CO` (configuration not stated) [Guaifenesin], 1.21. Still for that read-out and setting: to `Cc1cc(O)c(C(=O)N[C@@H](C(=O)N[C@@H]2C(=O)N3C(C(=O)O)=C(CSc4nnnn4C)CS[C@H]23)c2ccc(O)cc2)cn1` [Cefpiramide] belongs 0.765.

`CC1(C)OC(=O)NC1=O` [Dimethadione]: the ALDHbr amounted to 0.926.

For `CCOC1O[C@H]([C@@H](COCc2ccccc2)OCc2ccccc2)[C@H](OCc2ccccc2)[C@H]1O` (some centres not stated) [Tribenoside], the ALDHbr was 0.787.

Take `CS(=O)(=O)c1ccc([C@@H](O)[C@@H](CO)NC(=O)C(Cl)Cl)cc1` [Thiamphenicol]: the ALDHbr is 1.22.

Turning to `COc1cc(C(=O)NS(=O)(=O)c2ccccc2C)ccc1Cc1cn(C)c2ccc(NC(=O)OC3CCCC3)cc12` [Zafirlukast], the ALDHbr came to 0.804.

Turning to `C[C@H]1[C@H](NC(=O)/C(=N\OC(C)(C)C(=O)O)c2csc(N)n2)C(=O)N1S(=O)(=O)O` [Aztreonam], the ALDHbr came out at 0.966.

As for `COC(=O)C1=C(C)NC(C)=C(C(=O)OC)C1c1ccccc1[N+](=O)[O-]` [Nifedipine], the ALDHbr was found to be 0.917. For `CC(=O)Nc1ccc(O)cc1` [Acetaminophen], the ALDHbr came to 0.895.
